For one molecule, Kd, koff and t1/2 results are on record in US12296012 (Pfizer, dated 2025).

The target in this experiment is T1, human FLT3 (human, UniProt P36888 27-541, limits assumed).
T1 construct: Soluble analyte hFLT3 in SPR; also called hFLT3; huFlt3
T1 sequence: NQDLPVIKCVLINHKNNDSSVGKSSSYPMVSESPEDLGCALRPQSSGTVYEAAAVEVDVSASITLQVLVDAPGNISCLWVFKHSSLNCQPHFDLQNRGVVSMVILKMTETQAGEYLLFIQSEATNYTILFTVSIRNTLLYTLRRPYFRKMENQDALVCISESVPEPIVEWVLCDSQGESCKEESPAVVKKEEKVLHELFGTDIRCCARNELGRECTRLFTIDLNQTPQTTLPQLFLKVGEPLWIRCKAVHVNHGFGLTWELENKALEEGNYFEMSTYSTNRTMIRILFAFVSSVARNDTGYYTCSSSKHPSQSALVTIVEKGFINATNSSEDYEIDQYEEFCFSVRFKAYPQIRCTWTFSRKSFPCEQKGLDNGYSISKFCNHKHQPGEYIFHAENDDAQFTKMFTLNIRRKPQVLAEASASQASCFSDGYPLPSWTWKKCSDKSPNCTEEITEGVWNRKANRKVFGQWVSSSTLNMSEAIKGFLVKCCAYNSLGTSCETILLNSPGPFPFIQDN
Kind of experiment: SPR Biacore T200, 37C; scFv format. For orientation: Surface plasmon resonance follows binding to a sensor surface in real time, without labels.

B1: P4F6 (scFv format) (scFv, not shown: a dimerising Fc or GST; small tags and cut ends)
scFv: QVQLVQSGAEVKKPGSSVKVSCKASGGTFGSYGISWVRQAPGQGLEWMGGIIPIFGTVTYAQKFQGRVTITADESTRTAYMELSSLRSEDTAVYYCARDSWSGATGASDTWGQGTLVTVSSGGGGSGGGGSGGGGS[not shown - about 100 residues]RTFGQGTKVEIK
One may read the Kd as the free concentration of one partner at which half of the binding sites on the other are occupied at equilibrium, for simple one-to-one binding. Low values mean tighter binding, high ones weaker binding. In general, koff refers to the rate constant with which the complex falls apart. A low value points to a long-lived complex. For B1, the Kd was found to be 15.1 nM, the off-rate (koff) was 0.00199 s⁻¹ and the t1/2 was 5.8 min.
